These results are taken from the supplement of paper PMC8728848.

Common to all, as to test: glycan array binding signal (z-score within array); higher = stronger binding
Holding throughout (conditions): glycan notation: IUPAC condensed, linker removed

In assay [1] the target is Fuc(a1-2)[Gal(a1-3)]Gal(b1-3)GlcNAc(b1-2)Man(a1-3)[Fuc(a1-2)[Gal(a1-3)]Gal(b1-3)GlcNAc(b1-2)Man(a1-6)]Man(b1-4)GlcNAc(b1-4)GlcNAc. Put shortly: (§1)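 The binding signal is a Z-score computed within each array and averaged over linkers. Arrays of the same protein sequence at different concentrations or buffers were also averaged together. Data originate from 3228 arrays in the Consortium for Functional Glycomics database, kept only where the protein sequence was available.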

Assay [2] concerns the target Fuc(a1-2)[Gal(a1-3)]Gal(b1-3)GlcNAc(b1-2)Man(a1-3)[Fuc(a1-2)[Gal(a1-3)]Gal(b1-3)GlcNAc(b1-2)Man(a1-6)]Man(b1-4)GlcNAc(b1-4)[Fuc(a1-6)]GlcNAc. Put shortly: as §1
The target of assay [3] is Fuc(a1-2)[Gal(a1-3)]Gal(b1-3)GlcNAc(b1-3)GalNAc. A digest of the protocol:
as §1

Assay [4] has as its target Fuc(a1-2)[Gal(a1-3)]Gal(b1-3)GlcNAc(b1-6)GalNAc. A digest of the protocol: as §1
In assay [5] the target is Fuc(a1-2)[Gal(a1-3)]Gal(b1-4)Glc. A digest of the protocol: as §1
For assay [6], the target named is Fuc(a1-2)[Gal(a1-3)]Gal(b1-4)GlcNAc. A digest of the protocol:
as §1

For assay [7], the target named is Fuc(a1-2)[Gal(a1-3)]Gal(b1-4)GlcNAc(b1-2)Man. A digest of the protocol: as §1
The target in assay [8] is Fuc(a1-2)[Gal(a1-3)]Gal(b1-4)GlcNAc(b1-2)Man(a1-3)[Fuc(a1-2)[Gal(a1-3)]Gal(b1-4)GlcNAc(b1-2)Man(a1-6)]Man(b1-4)GlcNAc(b1-4)GlcNAc. A digest of the protocol: as §1
The target of assay [9] is Fuc(a1-2)[Gal(a1-3)]Gal(b1-4)GlcNAc(b1-2)Man(a1-3)[Fuc(a1-2)[Gal(a1-3)]Gal(b1-4)GlcNAc(b1-2)Man(a1-6)]Man(b1-4)GlcNAc(b1-4)[Fuc(a1-6)]GlcNAc. A digest of the protocol:
as §1

Assay [10] has as its target Fuc(a1-2)[Gal(a1-3)]Gal(b1-4)GlcNAc(b1-3)GalNAc. Put shortly:
as §1

The target in assay [11] is Fuc(a1-2)[Gal(a1-3)]Gal(b1-4)GlcNAc(b1-3)[Fuc(a1-2)[Gal(a1-3)]Gal(b1-4)GlcNAc(b1-6)]GalNAc. A digest of the protocol:
as §1

The target in assay [12] is Fuc(a1-2)[Gal(a1-3)]Gal(b1-4)GlcNAc(b1-6)GalNAc. Put shortly: as §1
Assay [13] has as its target Fuc(a1-2)[Gal(a1-3)]Gal(b1-4)[Fuc(a1-3)]Glc. Put shortly:
as §1

Assay [14] concerns the target Fuc(a1-2)[Gal(a1-3)]Gal(b1-4)[Fuc(a1-3)]GlcNAc. A digest of the protocol:
as §1

The target of assay [15] is Fuc(a1-2)[Gal(a1-3)]Gal(b1-4)[Fuc(a1-3)]GlcNAc(b1-3)GalNAc. Put shortly:
as §1

The target of assay [16] is Fuc(a1-2)[Gal(a1-4)]Gal(b1-4)GlcNAc. A digest of the protocol:
as §1

For assay [17], the target named is Fuc(a1-2)[GalNAc(a1-3)]Gal. A digest of the protocol: as §1
Assay [18] has as its target Fuc(a1-2)[GalNAc(a1-3)]Gal(b1-3)GalNAc(a1-3)[Fuc(a1-2)]Gal(b1-4)GlcNAc. A digest of the protocol: as §1
The target in assay [19] is Fuc(a1-2)[GalNAc(a1-3)]Gal(b1-3)GalNAc(b1-3)Gal(a1-4)Gal(b1-4)Glc. A digest of the protocol: as §1
In assay [20] the target is Fuc(a1-2)[GalNAc(a1-3)]Gal(b1-3)GlcNAc. A digest of the protocol: as §1
For assay [21], the target named is Fuc(a1-2)[GalNAc(a1-3)]Gal(b1-3)GlcNAc(b1-2)Man(a1-3)[Fuc(a1-2)[GalNAc(a1-3)]Gal(b1-3)GlcNAc(b1-2)Man(a1-6)]Man(b1-4)GlcNAc(b1-4)GlcNAc. A digest of the protocol:
as §1

Assay [22] has as its target Fuc(a1-2)[GalNAc(a1-3)]Gal(b1-3)GlcNAc(b1-2)Man(a1-3)[Fuc(a1-2)[GalNAc(a1-3)]Gal(b1-3)GlcNAc(b1-2)Man(a1-6)]Man(b1-4)GlcNAc(b1-4)[Fuc(a1-6)]GlcNAc. A digest of the protocol:
as §1

Assay [23] has as its target Fuc(a1-2)[GalNAc(a1-3)]Gal(b1-3)GlcNAc(b1-3)GalNAc. A digest of the protocol:
as §1

The other results are listed elsewhere or left out.

B1: RBMC1 (Vibrio cholerae) (protein)
chain: QQSQRVVTADNLMYLRSGFAIDAIGTTVNNLVGGPVQGTNGGVLRAPIALDQLQSVEVTSGLYNWGGYHIVAIKFTMKDGSSVLLGSTHYASNKKVETYTVPQGKRIKQINVWTGGWLVEGFQFVY
Consider B1, for which the “glycan array binding signal (z-score)” value is -0.043 in assay [1]; -0.324 in assay [2]; -0.2 in [3]; -0.29 in [4]; -0.236 in assay [5]; -0.311 in [6]. The “glycan array binding signal (z-score)” value in assay [7] was -0.302; in assay [8], 0.321; in assay [9] it was -0.103; in [10] it was -0.388; in [11], -0.078; in assay [12], -0.377. Moreover, the “glycan array binding signal (z-score)” value was -0.304 in [13]; -0.406 in [14]; -0.353 in assay [15]; -0.337 in [16]; -0.381 in assay [17]; -0.27 in assay [18]. Moreover, the “glycan array binding signal (z-score)” value in assay [19] was -0.314; in assay [20], -0.423; in assay [21] it was -0.193; in [22], -0.33; in [23] it was -0.331.
